Test results reported in the supplement of paper PMC8728848.
The list shows a part of the results.

Experiments:
Assay in all cases: glycan array binding signal (z-score within array); higher = stronger binding
Details in all cases: glycan notation: IUPAC condensed, linker removed
[1] = target: Gal(b1-4)GlcNAc(b1-2)Man(a1-3)[Gal(b1-4)GlcNAc(b1-2)Man(a1-6)]Man(b1-4)GlcNAc(b1-4)GlcNAc
Procedure, shortened: (§1)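 Arrays were curated from the Consortium for Functional Glycomics database, 3228 in total, and kept only where the protein sequence was available. Binding is expressed as a within-array Z-score. This score was averaged across arrays of the same protein sequence at different concentrations or buffers and across linkers, and negative values can be read as non-binding.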

[2] = target: Gal(b1-4)GlcNAc(b1-2)Man(a1-3)[Gal(b1-4)GlcNAc(b1-2)Man(a1-6)]Man(b1-4)GlcNAc(b1-4)[Fuc(a1-6)]GlcNAc
Procedure, shortened: as §1

[3] = target: Gal(b1-4)GlcNAc(b1-2)Man(a1-3)[Gal(b1-4)GlcNAc(b1-2)Man(a1-6)][Gal(b1-4)GlcNAc(b1-4)]Man(b1-4)GlcNAc(b1-4)[Fuc(a1-6)]GlcNAc
Procedure, shortened: as §1

[4] = target: Gal(b1-4)GlcNAc(b1-2)Man(a1-3)[Gal(b1-4)GlcNAc(b1-2)Man(a1-6)][GlcNAc(b1-4)]Man(b1-4)GlcNAc(b1-4)[Fuc(a1-6)]GlcNAc
Procedure, shortened: as §1

[5] = target: Gal(b1-4)GlcNAc(b1-2)Man(a1-3)[GlcNAc(b1-2)Man(a1-6)]Man(b1-4)GlcNAc(b1-4)GlcNAc
Procedure, shortened: as §1

[6] = target: Gal(b1-4)GlcNAc(b1-2)Man(a1-3)[GlcNAc(b1-4)][Gal(b1-4)GlcNAc(b1-2)Man(a1-6)]Man(b1-4)GlcNAc(b1-4)GlcNAc
Procedure, shortened: as §1

[7] = target: Gal(b1-4)GlcNAc(b1-2)Man(a1-3)[Man(a1-6)]Man(b1-4)GlcNAc(b1-4)GlcNAc
Procedure, shortened: as §1

[8] = target: Gal(b1-4)GlcNAc(b1-2)Man(a1-6)Man(b1-4)GlcNAc(b1-4)GlcNAc
Procedure, shortened: as §1

[9] = target: Gal(b1-4)GlcNAc(b1-2)Man(a1-6)[GlcNAc(b1-2)Man(a1-3)]Man(b1-4)GlcNAc(b1-4)GlcNAc
Procedure, shortened: as §1

[10] = target: Gal(b1-4)GlcNAc(b1-2)Man(a1-6)[Man(a1-3)]Man(b1-4)GlcNAc(b1-4)GlcNAc
Procedure, shortened: as §1

[11] = target: Gal(b1-4)GlcNAc(b1-2)[Gal(b1-4)GlcNAc(b1-4)]Man(a1-3)[Gal(b1-4)GlcNAc(b1-2)Man(a1-6)]Man(b1-4)GlcNAc(b1-4)GlcNAc
Procedure, shortened: as §1

[12] = target: Gal(b1-4)GlcNAc(b1-2)[Gal(b1-4)GlcNAc(b1-4)]Man(a1-3)[Gal(b1-4)GlcNAc(b1-2)[Gal(b1-4)GlcNAc(b1-6)]Man(a1-6)]Man(b1-4)GlcNAc(b1-4)GlcNAc
Procedure, shortened: as §1

[13] = target: Gal(b1-4)GlcNAc(b1-2)[Gal(b1-4)GlcNAc(b1-4)]Man(a1-3)[GlcNAc(b1-4)][Gal(b1-4)GlcNAc(b1-2)Man(a1-6)]Man(b1-4)GlcNAc(b1-4)GlcNAc
Procedure, shortened: as §1

[14] = target: Gal(b1-4)GlcNAc(b1-2)[Gal(b1-4)GlcNAc(b1-4)]Man(a1-3)[GlcNAc(b1-4)][Gal(b1-4)GlcNAc(b1-2)[Gal(b1-4)GlcNAc(b1-6)]Man(a1-6)]Man(b1-4)GlcNAc(b1-4)GlcNAc
Procedure, shortened: as §1

[15] = target: Gal(b1-4)GlcNAc(b1-2)[Gal(b1-4)GlcNAc(b1-6)]Man(a1-6)[Gal(b1-4)GlcNAc(b1-2)Man(a1-3)]Man(b1-4)GlcNAc(b1-4)GlcNAc
Procedure, shortened: as §1

[16] = target: Gal(b1-4)GlcNAc(b1-2)[Gal(b1-4)GlcNAc(b1-6)]Man(a1-6)[Gal(b1-4)GlcNAc(b1-2)Man(a1-3)]Man(b1-4)GlcNAc(b1-4)[Fuc(a1-6)]GlcNAc
Procedure, shortened: as §1

[17] = target: Gal(b1-4)GlcNAc(b1-2)[Gal(b1-4)GlcNAc(b1-6)]Man(a1-6)[GlcNAc(b1-4)][Gal(b1-4)GlcNAc(b1-2)Man(a1-3)]Man(b1-4)GlcNAc(b1-4)GlcNAc
Procedure, shortened: as §1

[18] = target: Gal(b1-4)GlcNAc(b1-2)[Gal(b1-4)GlcNAc(b1-6)]Man(a1-6)[GlcNAc(b1-4)][Gal(b1-4)GlcNAc(b1-2)[Gal(b1-4)GlcNAc(b1-4)]Man(a1-3)]Man(b1-4)GlcNAc(b1-4)[Fuc(a1-6)]GlcNAc
Procedure, shortened: as §1

[19] = target: Gal(b1-4)GlcNAc(b1-3)Gal(b1-3)GalNAc
Procedure, shortened: as §1

B1: AT1G73650(15) (Arabidopsis thaliana), F4HRY1 (protein)
chain: MGTVLDSHFLALTAIVTVIYQFIFFVITALFKFDQVTDFAGSTNFVILAVLTLVLKASWHFRQIVLTLLVVVWGLRLGIFLLMETRILQWGEDRRFDEQRGNIVRLIIFWTLQAVWVWTVSLPLTLVNASDGGGSLKPADVIGWTMETWVFGFLIEAAADQQKLSFKNSPENRGKWCDVGVWKYSRHPNYFGEMETLLWWGIFVAASPVLEGAEYLVIFGPLFLTLLLLFVSGIPLLEASADKKHGNSGAYRSYKKTTSPLILFPRGVYGNLPGWFKTVFLFEFPFYSRNLPQEGRLQNSKEKEVKDD
glycan array binding signal (z-score) [1]: -0.377
glycan array binding signal (z-score) [2]: -0.341
glycan array binding signal (z-score) [3]: -0.466
glycan array binding signal (z-score) [4]: -0.616
glycan array binding signal (z-score) [5]: -0.742
glycan array binding signal (z-score) [6]: 0.153
glycan array binding signal (z-score) [7]: -0.526
glycan array binding signal (z-score) [8]: -0.412
glycan array binding signal (z-score) [9]: -0.554
glycan array binding signal (z-score) [10]: -0.586
glycan array binding signal (z-score) [11]: -0.835
glycan array binding signal (z-score) [12]: -0.568
glycan array binding signal (z-score) [13]: -0.154
glycan array binding signal (z-score) [14]: -0.701
glycan array binding signal (z-score) [15]: 1.98
glycan array binding signal (z-score) [16]: 1.65
glycan array binding signal (z-score) [17]: -0.494
glycan array binding signal (z-score) [18]: -0.179
glycan array binding signal (z-score) [19]: 0.81
